In the supplement of paper PMC5919970:
Counter-ions that a name gives are not always drawn. Whole data set: some 2,000 compounds, median “fractional viability relative to vehicle” near 0.92, cut for the lowest 2% near 0.11. Some of the results follow.

Tested on: TYKNU
Assay: fractional viability relative to vehicle; TYKNU is a high-grade serous ovarian cancer line; higher = less growth inhibition
Settings: 72 h, genotype: OPA1 knockout (sgOPA1 #2)
Procedure, shortened: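 TYKNU control cells or lentiCRISPRv2 knockout derivatives were plated at 500 cells per well in duplicate into drug-stamped 384-well plates holding a ~2100-compound library at 2 or 10 μM. Culture was in RPMI 1640 with 10% FBS at 37 °C in 5% CO2, with 72 h of drug treatment. Viability was measured by Cell Titer Glo luminescence, and the averaged duplicate treatment wells were normalised to duplicate control wells at the same plate position.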

For `Cc1cc(-n2c(=O)[nH]c(=O)n(C)c2=O)ccc1Oc1ccc(SC(F)(F)F)cc1` [Toltrazuril], the fractional viability (2uM) was 0.929 and the fractional viability (10uM) was 0.817.

Molecule `Cc1ccccc1N1C(=O)c2cc(S(N)(=O)=O)c(Cl)cc2NC1C` (stereo unspecified) [Metolazone] has a fractional viability (2uM) of 1.16 and a fractional viability (10uM) of 0.992.

For `[I-].[K+]` [Potassium Iodide], the fractional viability (2uM) was 1.07 and the fractional viability (10uM) was 0.971.

`C/C(=N\NC(=O)c1cccc(S(=O)(=O)N2CCOCC2)c1)c1cc(Cl)ccc1O` was tested, and the fractional viability (2uM) was 0.715 and the fractional viability (10uM) was 0.527.

Work on `O=C(NS(=O)(=O)c1ccc(Br)s1)c1ccc(Cl)cc1Cl` [Tasisulam] yielded a fractional viability (2uM) of 1.08 and a fractional viability (10uM) of 0.831.

In the case of `COc1ccc(CNC(=O)Nc2ncc([N+](=O)[O-])s2)cc1`, the fractional viability (2uM) is reported as 1.38 and the fractional viability (10uM) is reported as 0.704.

`Cn1c2ccccc2c2c3c(c4c5ccccc5n(CCC#N)c4c21)CNC3=O` was tested, and the fractional viability (2uM) was 0.875 and the fractional viability (10uM) was 0.695.

`OCCOCCN1CCN(C(c2ccccc2)c2ccc(Cl)cc2)CC1` (stereo unspecified) [Hydroxyzine 2HCl] was tested, and the fractional viability (2uM) was 0.997 and the fractional viability (10uM) was 0.986.

`NC(=S)N/N=C/c1ncccc1N` [Triapine] was tested, and the fractional viability (2uM) was 0.539 and the fractional viability (10uM) was 0.477.

Work on `Nc1cccc2c1CN(C1CCC(=O)NC1=O)C2=O` (stereo unspecified) [Lenalidomide (CC-5013)] yielded a fractional viability (2uM) of 1.14 and a fractional viability (10uM) of 1.02.

`COc1nc(-c2ccc3c(c2)OCO3)n(-c2ccc(NC(=O)CSc3ccccc3)cc2)n1` [SecinH3] was tested, and the fractional viability (2uM) was 0.867 and the fractional viability (10uM) was 0.975.

`CCS(=O)(=O)Nc1ccc2c(c1)/C(=C(/Nc1ccc(CN3CCCCC3)cc1)c1ccccc1)C(=O)N2` [Hesperadin] was tested, and the fractional viability (2uM) was 0.544 and the fractional viability (10uM) was 0.113.

Molecule `O=C(Nc1ccc(-c2ccnc(Nc3ccc(N4CCOCC4)cc3)n2)cc1)C1CCCN1` (stereo unspecified) has a fractional viability (2uM) of 0.972 and a fractional viability (10uM) of 1.07.

`COc1ccc2[nH]c([S+]([O-])Cc3ncc(C)c(OC)c3C)nc2c1` (stereo unspecified) [Omeprazole] showed a fractional viability (2uM) of 1.16 and a fractional viability (10uM) of 1.32.

Work on `CCOC(=O)[C@H](CCc1ccccc1)N[C@@H](C)C(=O)N1CCC[C@H]1C(=O)O` [Enalapril Maleate] yielded a fractional viability (2uM) of 0.919 and a fractional viability (10uM) of 1.05.

With `CNC(=O)[C@H](Cc1ccccc1)NC(=O)[C@H](CC(C)C)[C@H](CSc1cccs1)C(=O)NO` [Batimastat (BB-94)] the fractional viability (2uM) was 0.586 and the fractional viability (10uM) was 0.568.

With `C[C@]12CC[C@@H]3c4ccc(O)cc4CC[C@H]3[C@@H]1C[C@@H](O)[C@@H]2O` [Estriol] the fractional viability (2uM) was 1.06 and the fractional viability (10uM) was 0.814.

`Cc1nc(N)sc1-c1ccnc(Nc2ccc(N3CCOCC3)cc2)n1` showed a fractional viability (2uM) of 1.08 and a fractional viability (10uM) of 0.715.

`CCC[C@H](NC(=O)[C@@H]1[C@H]2CCC[C@H]2CN1C(=O)[C@@H](NC(=O)[C@@H](NC(=O)c1cnccn1)C1CCCCC1)C(C)(C)C)C(=O)C(=O)NC1CC1` [Telaprevir (VX-950)] gave a fractional viability (2uM) of 1.1 and a fractional viability (10uM) of 0.577.

`Cc1noc(NS(=O)(=O)c2ccc(N)cc2)c1C` [Sulfisoxazole] was tested, and the fractional viability (2uM) was 1.14 and the fractional viability (10uM) was 1.06.

`CCc1cccc2c3c([nH]c12)C(CC)(CC(=O)O)OCC3` (stereo unspecified) [Etodolac] showed a fractional viability (2uM) of 1.09 and a fractional viability (10uM) of 0.888.

Molecule `C[C@@H]1CN(CC(=O)Nc2ccc3c(c2)Cc2cccc(-c4cc(=O)cc(N5CCOCC5)o4)c2S3)C[C@H](C)O1` has a fractional viability (2uM) of 1.12 and a fractional viability (10uM) of 0.748.

Molecule `O=C(O)c1ccccc1C(=O)Nc1ccc(-c2ccccc2)cc1` [Kartogenin] has a fractional viability (2uM) of 0.838 and a fractional viability (10uM) of 0.747.

Work on `CC(=O)N1CCN(CCOc2ccc(C3CCN(C4=Nn5c(nnc5C(F)(F)F)CC4)CC3)cc2)CC1` yielded a fractional viability (2uM) of 0.883 and a fractional viability (10uM) of 0.826.

For `C=CC(=O)N1CCC[C@@H](n2nc(-c3ccc(Oc4ccccc4)cc3)c3c(N)ncnc32)C1`, the fractional viability (2uM) was 0.903 and the fractional viability (10uM) was 0.918.

`C=CC(=O)Nc1ccc2ncnc(Nc3ccc(OCc4cccc(F)c4)c(Cl)c3)c2c1` was tested, and the fractional viability (2uM) was 0.742 and the fractional viability (10uM) was 0.0667.

Molecule `CC1=C(CC(=O)O)c2cc(F)ccc2/C1=C\c1ccc([S+](C)[O-])cc1` (stereo unspecified) [Sulindac] has a fractional viability (2uM) of 0.998 and a fractional viability (10uM) of 0.875.

`Cn1c([N+](=O)[O-])cnc1COC(N)=O` [Ronidazole] gave a fractional viability (2uM) of 1.77 and a fractional viability (10uM) of 1.32.

With `CCN(c1cc(-c2ccc(CN3CCOCC3)cc2)cc(C(=O)NCc2c(C)cc(C)[nH]c2=O)c1C)C1CCOCC1` the fractional viability (2uM) was 0.936 and the fractional viability (10uM) was 0.888.

`CN(C)[C@@H]1C(O)=C(C(N)=O)C(=O)[C@@]2(O)C(O)=C3C(=O)c4c(O)ccc(Cl)c4[C@@H](O)[C@H]3C[C@@H]12` [Demeclocycline HCl] was tested, and the fractional viability (2uM) was 1.55 and the fractional viability (10uM) was 1.13.

`O=C(O)CC1CC(c2ccccc2)=NO1` (stereo unspecified) was tested, and the fractional viability (2uM) was 0.825 and the fractional viability (10uM) was 0.726.

`CC[C@@H]1/C=C(\C)C[C@H](C)C[C@H](OC)[C@H]2O[C@@](O)(C(=O)C(=O)N3CCCC[C@H]3C(=O)O[C@H](/C(C)=C/[C@@H]3CC[C@H](Cl)[C@H](OC)C3)[C@H](C)[C@@H](O)CC1=O)[C@H](C)C[C@@H]2OC` [Pimecrolimus] showed a fractional viability (2uM) of 0.794 and a fractional viability (10uM) of 0.719.

Work on `OC[C@H]1O[C@@H](O[C@@H]2[C@@H](CO)OC(O)(CO)[C@H]2O)[C@H](O)[C@@H](O)[C@H]1O` (mixture of isomers) [Lactulose] yielded a fractional viability (2uM) of 1.08 and a fractional viability (10uM) of 0.934.

In the case of `Cc1cc(Nc2nc(N[C@@H](C)c3ncc(F)cn3)ncc2Cl)[nH]n1`, the fractional viability (2uM) is reported as 0.91 and the fractional viability (10uM) is reported as 0.875.

In the case of `COC[C@H](NC(=O)c1cnc(C)s1)C(=O)N[C@@H](COC)C(=O)N[C@@H](Cc1ccccc1)C(=O)[C@@]1(C)CO1` [Oprozomib (ONX 0912)], the fractional viability (2uM) is reported as 0.153 and the fractional viability (10uM) is reported as 0.136.

`CCCCC(=O)N(Cc1ccc(-c2ccccc2-c2nnn[nH]2)cc1)[C@H](C(=O)O)C(C)C.CCOC(=O)[C@H](C)C[C@@H](Cc1ccc(-c2ccccc2)cc1)NC(=O)CCC(=O)O` was tested, and the fractional viability (2uM) was 0.858 and the fractional viability (10uM) was 0.825.

For `Cc1ccc2c(Cl)cc(Cl)c(O)c2n1` [Chlorquinaldol], the fractional viability (2uM) was 0.802 and the fractional viability (10uM) was 0.53.

Molecule `N=C(N)N/N=C/c1c(Cl)cccc1Cl` [Guanabenz Acetate] has a fractional viability (2uM) of 0.969 and a fractional viability (10uM) of 0.8.

`NCc1c[nH]c(=S)n1[C@@H]1CCc2c(F)cc(F)cc2C1` [(R)-Nepicastat HCl] gave a fractional viability (2uM) of 0.932 and a fractional viability (10uM) of 0.924.

Work on `C[C@H](Oc1cc(-c2cnn(C3CCNCC3)c2)cnc1N)c1c(Cl)ccc(F)c1Cl` [(S)-crizotinib] yielded a fractional viability (2uM) of 0.839 and a fractional viability (10uM) of 0.197.

In the case of `Brc1c(NC2=NCCN2)ccc2nccnc12` [Brimonidine Tartrate], the fractional viability (2uM) is reported as 0.995 and the fractional viability (10uM) is reported as 1.13.

For `CN(C)CCOC(=O)COc1ccc(Cl)cc1` [Meclofenoxate (Centrophenoxine) HCl], the fractional viability (2uM) was 0.946 and the fractional viability (10uM) was 0.981.

`Fc1cc(-c2cccc3ncc(-c4cnn(C5CCNCC5)c4)nc23)cc(F)c1CN1CCOCC1` gave a fractional viability (2uM) of 0.858 and a fractional viability (10uM) of 0.133.
